# Laboratory results: PubChem BioAssay AID1240 (Sanford-Burnham Center for Chemical Genomics, 2008)
# Out of some 50,000 compounds screened, about 800 (1.6%) showed an effect of 50% or more. The list shows a part of the results.
# Molecular target: Bcl-2-like protein 10 (Homo sapiens) (UniProt Q9HD36)
# Assay: Phenotype converters, Bcl-B/TR3 peptide binding displacement, primary biochemical FP (AID 1240);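 further: 0% = Bcl-B with tracer peptide and DMSO and 100% = tracer peptide lacking Bcl-B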
# Details: GST-Bcl-B / FITC-TR3 peptide fluorescence polarization; stronger effect = higher value; compound at 3.75 mg/L
# Sequence of UniProt Q9HD36 (Q9HD36 whole entry, looked up): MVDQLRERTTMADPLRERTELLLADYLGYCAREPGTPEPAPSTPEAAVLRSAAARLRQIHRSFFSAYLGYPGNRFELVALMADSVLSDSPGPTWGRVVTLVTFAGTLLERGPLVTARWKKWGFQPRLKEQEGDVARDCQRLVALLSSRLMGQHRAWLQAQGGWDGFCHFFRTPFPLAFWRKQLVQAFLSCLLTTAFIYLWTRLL
row,SMILES,displacement
1,Cn1c(NN)nc2c(c1=O)C(C)(C)Cc1ccccc1-2,-10.7%
2,COc1ccc2ccccc2c1C=Nc1ccc(C)c(I)c1,-9.7%
3,COC(=O)c1ccc(/C=C2\SC(=O)N(NC(=O)c3ccc([N+](=O)[O-])cc3)C2=O)cc1,-4.5%
4,CC(=O)Oc1ccc2ccccc2c1C(NC(=O)Cc1ccccc1)c1ccco1 (stereo not given),-4.5%
5,Cc1cc(C)c(OCCCN2CCCC2)c(Cl)c1,2.8%
6,Cc1c(C(=O)OC(C)C)sc(NC(=O)/C=C/c2ccc3c(c2)OCO3)c1C(=O)OC(C)C,-5.1%
7,COc1ccc(C(=O)N2CCN(C(=O)c3cccc(Cl)c3)CC2)cc1,-29.4%
8,O=c1c2c3c(sc2[nH]c(=S)n1CCc1ccccc1)CCC3,25.8%
9,CCc1ccccc1NC(=O)c1cncc(Br)c1,5.4%
10,CC(=O)c1c(O)c(C(C)(C)C)cc(C(C)(C)C)c1O,-1.9%
11,COC(=O)c1c(N)sc2c1CCc1ccccc1-2,-1.3%
12,C#Cc1cccc(NC(=O)C(C)(C)C)c1,-8.2%
13,O=C(Nc1ncc(Cc2cccc([N+](=O)[O-])c2)s1)c1sc2ccccc2c1Cl,8.4%
14,Cc1ccc(S(=O)(=O)Oc2ccc(/C=C3\SC(=S)NC3=O)cc2Br)cc1,-7.8%
15,O=C(Nc1nnc(/C=C/c2ccccc2)s1)c1ccccc1Br,-10.5%
16,CCCCOc1cccc(C(=O)NCc2cccnc2)c1,-13.9%
17,O=C(Nc1ccccc1Br)C1CC(=O)N(c2ccccc2)C1 (stereo not given),77.5%
18,Cc1cccc(C(=O)O/N=C(\N)c2ccc(Cl)cc2)c1,10.6%
19,CCOc1ccc(N/C=C(/C#N)c2nc(-c3cccc(OC)c3)cs2)cc1,-1.7%
20,Cc1ccc(S(=O)(=O)N2CC(=O)Nc3ccccc32)cc1,-1.7%
21,COc1ccc(-c2c(C(=O)O)nc3ccccc3c2C(=O)O)cc1,-16.3%
22,Cc1cc(OCC(=O)Nc2ccccc2)ccc1Cl,0.6%
23,COc1cccc(/C=N\NC(=O)CNc2ccccc2C)c1,14.5%
24,COc1cc(C2/C(=C(\O)c3ccc(C)cc3)C(=O)C(=O)N2CCCC(=O)O)ccc1O (stereo not given),0.9%
25,Cc1ccc2cccc(OC(=O)c3ccc(Br)o3)c2n1,10.8%
26,Nc1ccc(O)c(-c2nc3cc(N)ccc3s2)c1,-5.3%
27,CCOC(=O)/C(=N/O)C1=NC(C)(C)Cc2cc(C)c(C)cc21,0.6%
28,COc1ccc(NC(=O)C2=C(C)NC(=O)NC2c2cc(OC)c(OC)c(OC)c2)cc1 (stereo not given),-7%

row,SMILES,displacement
1,COc1ccc(NC(=O)CCOc2ccccc2)c(OC)c1,4.7%
2,Cc1[nH]n(-c2ccc([N+](=O)[O-])cc2)c(=O)c1C=NC1CCCCC1,-1.9%
3,O=C(c1cccc(F)c1)N1CCN(c2ccccc2)CC1,-5.4%
4,CS(=O)(=O)N(CC(=O)NCCSCc1ccccc1)c1cccc(Br)c1,-3%
5,CCOc1cc(C2NC(=S)NC(C)=C2C(=O)Nc2ccccc2C)ccc1O (stereo not given),-4%
6,COc1ccc(O)c(/C=N/c2nc3ccccc3[nH]2)c1,-5.3%
7,Cc1ccc2nc(NC(=O)c3ccccc3Cl)sc2c1,4.5%
8,O=C(Nc1cc(C(F)(F)F)ccc1Cl)C1CC(=O)N(c2ccc(F)cc2)C1 (stereo not given),5.4%
9,O=Cc1ccc(Oc2ncnc3ccccc23)cc1,-6.4%
10,CCCc1ncc(C(O)c2cccc(OC)c2OC)n1C (stereo not given),0.1%
11,CCN(CC)c1ccc(NC(=O)Cc2ccc(OC)c(OC)c2)cc1,-1.5%
12,Cc1ccc(C)c(S(=O)(=O)Nc2ccc(Cl)cc2)c1,9%
13,O=C(CN1C(=O)c2ccccc2C1=O)Nc1cccc2ncccc12,0.8%
14,COc1cc(OC)c(C2SCCN2S(=O)(=O)c2ccc3cccc4c3c2CC4)cc1OC (stereo not given),-0.6%
15,CCCCOc1ccc(C(=O)NCc2ccccc2F)cc1,0.7%
16,Cc1ccc2c(nc3s/c(=C/c4cc5c(cc4Br)OCO5)c(=O)n32)c1C,8.4%
17,OCCN(CC#CCC(O)(c1ccccc1)c1ccccc1)Cc1ccccc1,10.9%
18,Cc1ccc(/C=C/C(=O)Nc2ccc(C)c([N+](=O)[O-])c2)o1,62%
19,O=C(Nc1cccc2ccccc12)C(=O)NC1CCCC1,1.8%
20,O=C(c1ccccc1-c1nc2ccccc2[nH]1)N1CCOCC1,7.1%
21,COCCN1C(=O)/C(=C/c2cccc([N+](=O)[O-])c2)SC1=S,-27%
22,Cc1ccc2nsnc2c1NC(=O)c1ccc(-c2cccc([N+](=O)[O-])c2)o1,105%
23,Cc1cc(C)cc(NC(=O)C(=O)NCCc2ccccc2)c1,8.5%
24,NC(=O)c1ccccc1NC(=O)c1cccc(Cl)c1,-9.4%
25,COc1ccc(OC)c(N/C=C(/C#N)c2nc(-c3cc4c(ccc5ccccc54)oc3=O)cs2)c1,6.7%
26,Cc1ccc(/C=C2/SC(=S)N(CCC(=O)Nc3c(C)n(C)n(-c4ccccc4)c3=O)C2=O)cc1,3%
27,O=C(NCCC1=CCCCC1)c1ccc(Cl)cc1[N+](=O)[O-],-5.1%
